Measurements: PMC6127106
Results are given in words; binding and its absence hold for the method and conditions named. Some binding calls cover weakened binding; strength is not graded here. Each block holds one binder with its values, some of them ahead of it.

The chains behind the UniProt entries cited, without tags or fusion partners. Where a name states a change or a piece, a line headed by the entry shows the natural chain unless it says otherwise.
UniProt P08514: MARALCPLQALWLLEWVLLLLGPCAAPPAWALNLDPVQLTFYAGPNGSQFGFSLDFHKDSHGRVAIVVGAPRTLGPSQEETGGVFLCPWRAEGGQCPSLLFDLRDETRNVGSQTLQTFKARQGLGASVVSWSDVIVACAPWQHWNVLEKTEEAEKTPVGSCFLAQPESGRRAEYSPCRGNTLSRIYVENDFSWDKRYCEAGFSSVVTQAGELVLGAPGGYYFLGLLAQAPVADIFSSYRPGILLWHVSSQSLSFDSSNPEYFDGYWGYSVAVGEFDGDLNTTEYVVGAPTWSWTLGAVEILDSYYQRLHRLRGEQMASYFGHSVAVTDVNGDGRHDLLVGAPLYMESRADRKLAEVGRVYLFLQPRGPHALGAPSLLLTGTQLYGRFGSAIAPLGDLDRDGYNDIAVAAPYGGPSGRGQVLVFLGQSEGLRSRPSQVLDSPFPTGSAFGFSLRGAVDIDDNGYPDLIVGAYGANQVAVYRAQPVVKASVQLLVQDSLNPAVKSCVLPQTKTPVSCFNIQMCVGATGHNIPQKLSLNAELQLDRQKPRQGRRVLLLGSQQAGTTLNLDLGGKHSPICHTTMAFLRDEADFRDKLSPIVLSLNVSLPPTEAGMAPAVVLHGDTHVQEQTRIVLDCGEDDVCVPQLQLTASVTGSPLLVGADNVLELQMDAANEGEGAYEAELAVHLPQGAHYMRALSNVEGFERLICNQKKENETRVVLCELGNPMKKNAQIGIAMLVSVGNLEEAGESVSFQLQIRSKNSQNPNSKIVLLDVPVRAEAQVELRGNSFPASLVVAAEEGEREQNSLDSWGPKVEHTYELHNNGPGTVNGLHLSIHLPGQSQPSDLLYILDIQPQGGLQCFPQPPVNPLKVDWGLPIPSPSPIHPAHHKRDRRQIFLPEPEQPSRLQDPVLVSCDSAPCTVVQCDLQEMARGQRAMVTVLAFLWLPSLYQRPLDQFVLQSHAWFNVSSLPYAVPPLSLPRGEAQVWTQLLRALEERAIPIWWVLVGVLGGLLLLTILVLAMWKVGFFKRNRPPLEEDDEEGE
UniProt P08648: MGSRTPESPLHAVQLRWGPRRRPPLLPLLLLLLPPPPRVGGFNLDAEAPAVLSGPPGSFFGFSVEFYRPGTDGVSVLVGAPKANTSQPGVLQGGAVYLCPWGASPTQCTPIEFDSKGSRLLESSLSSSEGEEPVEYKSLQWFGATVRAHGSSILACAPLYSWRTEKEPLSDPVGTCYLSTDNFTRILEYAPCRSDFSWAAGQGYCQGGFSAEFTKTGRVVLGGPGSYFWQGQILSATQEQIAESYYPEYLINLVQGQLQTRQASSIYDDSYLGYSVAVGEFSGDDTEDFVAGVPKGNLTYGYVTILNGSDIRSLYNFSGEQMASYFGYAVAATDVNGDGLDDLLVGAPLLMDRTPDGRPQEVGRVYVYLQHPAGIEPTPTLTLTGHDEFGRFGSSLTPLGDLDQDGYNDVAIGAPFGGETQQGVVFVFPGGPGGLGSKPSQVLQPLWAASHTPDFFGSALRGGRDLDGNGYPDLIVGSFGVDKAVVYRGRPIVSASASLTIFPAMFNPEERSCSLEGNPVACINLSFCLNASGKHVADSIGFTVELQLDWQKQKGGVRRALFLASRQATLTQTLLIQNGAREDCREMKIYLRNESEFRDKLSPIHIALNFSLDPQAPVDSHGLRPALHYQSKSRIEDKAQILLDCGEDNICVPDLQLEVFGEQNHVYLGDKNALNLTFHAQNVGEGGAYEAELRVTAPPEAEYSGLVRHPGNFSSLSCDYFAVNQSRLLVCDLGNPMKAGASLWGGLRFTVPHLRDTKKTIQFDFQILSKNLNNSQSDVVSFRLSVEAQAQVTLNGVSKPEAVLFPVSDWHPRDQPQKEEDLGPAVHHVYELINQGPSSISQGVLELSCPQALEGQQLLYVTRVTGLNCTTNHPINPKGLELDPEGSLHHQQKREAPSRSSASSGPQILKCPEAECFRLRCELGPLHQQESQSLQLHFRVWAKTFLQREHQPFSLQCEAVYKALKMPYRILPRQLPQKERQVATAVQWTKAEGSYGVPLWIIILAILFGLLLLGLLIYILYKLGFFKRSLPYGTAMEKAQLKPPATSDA
UniProt P06756: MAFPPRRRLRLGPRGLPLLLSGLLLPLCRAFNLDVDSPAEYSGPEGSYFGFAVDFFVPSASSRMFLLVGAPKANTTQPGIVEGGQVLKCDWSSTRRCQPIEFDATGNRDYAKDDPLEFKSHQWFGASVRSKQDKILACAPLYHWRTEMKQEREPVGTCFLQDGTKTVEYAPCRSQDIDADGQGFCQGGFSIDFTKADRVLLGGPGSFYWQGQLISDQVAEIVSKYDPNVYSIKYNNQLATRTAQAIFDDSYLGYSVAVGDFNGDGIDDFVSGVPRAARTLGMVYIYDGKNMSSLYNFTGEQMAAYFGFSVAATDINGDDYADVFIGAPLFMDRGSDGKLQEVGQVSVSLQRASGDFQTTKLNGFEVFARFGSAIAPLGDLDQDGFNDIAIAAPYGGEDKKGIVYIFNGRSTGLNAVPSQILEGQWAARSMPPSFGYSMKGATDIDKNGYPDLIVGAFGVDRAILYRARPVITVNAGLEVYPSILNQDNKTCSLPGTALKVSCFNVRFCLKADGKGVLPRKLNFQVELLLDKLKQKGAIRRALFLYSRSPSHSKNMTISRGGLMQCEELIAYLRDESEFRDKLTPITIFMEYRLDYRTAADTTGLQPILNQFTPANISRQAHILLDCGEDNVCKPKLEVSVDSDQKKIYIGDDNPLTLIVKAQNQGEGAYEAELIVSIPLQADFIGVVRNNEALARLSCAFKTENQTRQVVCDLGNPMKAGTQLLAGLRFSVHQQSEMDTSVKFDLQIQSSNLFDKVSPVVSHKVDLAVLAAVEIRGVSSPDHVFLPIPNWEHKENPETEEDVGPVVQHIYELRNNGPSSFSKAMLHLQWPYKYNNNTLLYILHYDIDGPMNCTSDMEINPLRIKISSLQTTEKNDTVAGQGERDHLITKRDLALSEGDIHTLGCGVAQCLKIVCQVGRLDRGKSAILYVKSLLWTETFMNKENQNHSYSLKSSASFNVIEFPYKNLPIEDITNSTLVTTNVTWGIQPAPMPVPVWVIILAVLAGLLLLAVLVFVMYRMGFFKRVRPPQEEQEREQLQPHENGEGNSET
UniProt P05106: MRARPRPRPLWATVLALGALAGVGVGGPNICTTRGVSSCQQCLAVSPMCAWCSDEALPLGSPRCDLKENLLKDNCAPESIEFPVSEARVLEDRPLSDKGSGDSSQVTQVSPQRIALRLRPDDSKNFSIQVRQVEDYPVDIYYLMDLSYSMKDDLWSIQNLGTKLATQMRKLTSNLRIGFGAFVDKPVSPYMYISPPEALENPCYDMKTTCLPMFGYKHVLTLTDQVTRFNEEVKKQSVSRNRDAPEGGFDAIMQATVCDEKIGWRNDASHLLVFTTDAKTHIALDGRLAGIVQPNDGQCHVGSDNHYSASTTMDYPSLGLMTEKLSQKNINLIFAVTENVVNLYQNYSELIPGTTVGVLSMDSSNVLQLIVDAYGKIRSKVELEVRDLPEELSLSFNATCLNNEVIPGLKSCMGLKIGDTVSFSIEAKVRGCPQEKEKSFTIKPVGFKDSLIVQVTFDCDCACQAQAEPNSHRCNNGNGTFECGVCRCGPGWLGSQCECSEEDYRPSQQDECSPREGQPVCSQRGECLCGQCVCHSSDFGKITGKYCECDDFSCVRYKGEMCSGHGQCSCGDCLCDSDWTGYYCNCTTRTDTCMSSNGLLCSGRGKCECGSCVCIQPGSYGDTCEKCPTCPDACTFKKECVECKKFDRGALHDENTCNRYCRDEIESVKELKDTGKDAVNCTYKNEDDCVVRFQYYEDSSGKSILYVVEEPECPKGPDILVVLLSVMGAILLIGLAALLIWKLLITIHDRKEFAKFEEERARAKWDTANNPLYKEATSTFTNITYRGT
UniProt Q9QUM0: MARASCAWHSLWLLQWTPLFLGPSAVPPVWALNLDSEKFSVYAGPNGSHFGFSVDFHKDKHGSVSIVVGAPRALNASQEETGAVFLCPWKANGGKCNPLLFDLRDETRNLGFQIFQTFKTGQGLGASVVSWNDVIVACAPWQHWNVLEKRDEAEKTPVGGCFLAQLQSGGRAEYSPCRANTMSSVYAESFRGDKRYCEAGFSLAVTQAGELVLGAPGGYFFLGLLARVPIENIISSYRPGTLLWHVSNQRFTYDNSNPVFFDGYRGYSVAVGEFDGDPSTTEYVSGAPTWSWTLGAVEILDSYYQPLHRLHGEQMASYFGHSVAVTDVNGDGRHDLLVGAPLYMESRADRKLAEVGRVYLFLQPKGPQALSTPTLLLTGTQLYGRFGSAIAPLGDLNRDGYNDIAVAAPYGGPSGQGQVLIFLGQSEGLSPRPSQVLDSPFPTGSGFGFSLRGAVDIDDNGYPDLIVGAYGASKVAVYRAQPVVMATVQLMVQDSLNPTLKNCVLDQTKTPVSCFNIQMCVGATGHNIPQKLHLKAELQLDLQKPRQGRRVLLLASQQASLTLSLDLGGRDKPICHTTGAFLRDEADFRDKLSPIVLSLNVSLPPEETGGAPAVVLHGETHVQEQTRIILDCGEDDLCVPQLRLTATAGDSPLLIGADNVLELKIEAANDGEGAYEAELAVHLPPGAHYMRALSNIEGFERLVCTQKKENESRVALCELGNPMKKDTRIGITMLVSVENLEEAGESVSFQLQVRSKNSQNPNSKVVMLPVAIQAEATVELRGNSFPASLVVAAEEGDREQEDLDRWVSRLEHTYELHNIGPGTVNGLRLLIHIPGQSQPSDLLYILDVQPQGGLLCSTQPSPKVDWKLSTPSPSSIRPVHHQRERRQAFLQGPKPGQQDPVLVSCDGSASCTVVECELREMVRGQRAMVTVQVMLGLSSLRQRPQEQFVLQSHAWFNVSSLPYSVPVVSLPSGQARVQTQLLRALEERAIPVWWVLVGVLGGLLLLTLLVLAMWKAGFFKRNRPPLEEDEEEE
UniProt O54890: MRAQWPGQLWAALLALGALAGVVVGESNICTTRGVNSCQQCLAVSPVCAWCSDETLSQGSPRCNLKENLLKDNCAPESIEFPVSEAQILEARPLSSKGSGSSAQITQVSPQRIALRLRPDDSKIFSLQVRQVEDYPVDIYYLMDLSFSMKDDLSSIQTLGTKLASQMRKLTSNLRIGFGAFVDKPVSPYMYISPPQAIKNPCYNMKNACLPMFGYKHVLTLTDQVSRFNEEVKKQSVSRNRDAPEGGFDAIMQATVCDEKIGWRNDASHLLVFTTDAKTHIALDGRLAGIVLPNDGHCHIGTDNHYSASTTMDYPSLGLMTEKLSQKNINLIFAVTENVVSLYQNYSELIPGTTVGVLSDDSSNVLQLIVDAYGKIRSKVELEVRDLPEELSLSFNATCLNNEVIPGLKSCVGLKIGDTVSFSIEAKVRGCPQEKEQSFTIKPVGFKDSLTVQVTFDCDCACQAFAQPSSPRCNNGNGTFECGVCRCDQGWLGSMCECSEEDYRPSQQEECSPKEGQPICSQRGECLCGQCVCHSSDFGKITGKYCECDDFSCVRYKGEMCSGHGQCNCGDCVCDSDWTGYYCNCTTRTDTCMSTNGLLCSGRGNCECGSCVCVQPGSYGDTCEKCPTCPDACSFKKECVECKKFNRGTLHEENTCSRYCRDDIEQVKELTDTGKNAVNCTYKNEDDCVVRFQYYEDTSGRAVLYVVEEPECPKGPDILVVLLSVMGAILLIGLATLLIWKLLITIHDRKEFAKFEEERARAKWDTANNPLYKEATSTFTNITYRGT

What was measured:
[1] = target: αIIbβ3 integrin on platelets used as BFP targets (UniProt P08514); assay: Biomembrane Force Probe adhesion frequency assay; as a5, but resting platelets as target; 1 mM Ca2+; only the binder purified
[2] = target: recombinant α5β1-Fc ectodomain (UniProt P08648); assay: Biomembrane Force Probe adhesion frequency assay; biotinylated apoA-IV on a streptavidin probe bead; beads with purified integrins as targets; 1 mM Ca2+; complete inhibition by mAb M1; both purified
[3] = target: recombinant αVβ3 ectodomain with a hexa-Histidine tag at the C-terminus (UniProt P06756); assay: as above
[4] = target: αIIbβ3 integrin on platelets used as BFP targets (UniProt P08514); assay: Biomembrane Force Probe adhesion frequency assay; biotinylated apoA-IV on a streptavidin probe bead; ADP-treated platelet as target; 1 mM Ca2+; 50 cycles a pair; complete inhibition by mAb M1; only the binder purified
[5] = target: GPIb-IX complex expressed on CHO cells (UniProt P07359); assay: Biomembrane Force Probe adhesion frequency assay; biotinylated apoA-IV on a streptavidin probe bead; cells of lines expressing αIIbβ3, GPIb-IX or αMβ2 as targets; complete inhibition by mAb M1; only the binder purified
[6] = target: αIIbβ3 integrin expressed on CHO cells (UniProt P08514); assay: as above
[7] = target: αIIbβ3 integrin on human platelets (human (endogenous in human platelets)) (UniProt P08514+P05106); assay: flow cytometry on cells; human gel-filtered platelets (1 × 10^8) with increasing doses of apoA-IV or BSA, then FITC-Fg 15 min at room temperature; TRAP 250 µM; fixed; only the binder purified
[8] = target: T1, mouse platelet αIIbβ3 integrin (β3 integrin on mouse platelets) (mouse (endogenous in mouse platelets)) (UniProt Q9QUM0+O54890); assay: condition: only quiescent platelets (not activated by ADP or collagen); flow cytometry on cells; as a2, but quiescent (resting) platelets in mouse PRP
[9] = target: T1, mouse platelet αIIbβ3 integrin (β3 integrin on mouse platelets) (mouse (endogenous in mouse platelets)); assay: flow cytometry on cells; mouse PRP; platelets activated with ADP (20 or 50 µM) or collagen (5 µg/mL), fixed, goat anti-apoA-IV (N-20) and FITC anti-goat IgG; β3-deficient platelets and anti-β3 mAb M1 as controls

- binding [1]: binds weakly
- binding [2]: no binding
- binding [3]: no binding
- binding [4]: binds
- binding [5]: no binding
- binding [6]: binds
B1: C-terminal biotinylated recombinant human apoA-IV (apoA-IV-GGC) (ligand, UniProt P06727 21-396)
chain: EVSADQVATVMWDYFSQLSNNAKEAVEHLQKSELTQQLNALFQDKLGEVNTYAGDLQKKLVPFATELHERLAKDSEKLKEEIGKELEELRARLLPHANEVSQKIGDNLRELQQRLEPYADQLRTQVSTQAEQLRRQLTPYAQRMERVLRENADSLQASLRPHADELKAKIDQNVEELKGRLTPYADEFKVKIDQTVEELRRSLAPYAQDTQEKLNHQLEGLTFQMKKNAEELKARISASAEELRQRLAPLAEDVRGNLRGNTEGLQKSLAELGGHLDQQVEEFRRRVEPYGENFNKALVQQMEQLRQKLGPHAGDVEGHLSFLEKDLRDKVNSFFSTFKEKESQDKTLSLPELEQQQEQQQEQQQEQVQMLAPLESGGC
modifications: maleimide-PEG2-biotin on the C-terminal cysteine of the GlyGlyCys linker

- binding [7]: binds
B2: recombinant human apoA-IV (ligand, UniProt P06727 21-396)
chain: EVSADQVATVMWDYFSQLSNNAKEAVEHLQKSELTQQLNALFQDKLGEVNTYAGDLQKKLVPFATELHERLAKDSEKLKEEIGKELEELRARLLPHANEVSQKIGDNLRELQQRLEPYADQLRTQVSTQAEQLRRQLTPYAQRMERVLRENADSLQASLRPHADELKAKIDQNVEELKGRLTPYADEFKVKIDQTVEELRRSLAPYAQDTQEKLNHQLEGLTFQMKKNAEELKARISASAEELRQRLAPLAEDVRGNLRGNTEGLQKSLAELGGHLDQQVEEFRRRVEPYGENFNKALVQQMEQLRQKLGPHAGDVEGHLSFLEKDLRDKVNSFFSTFKEKESQDKTLSLPELEQQQEQQQEQQQEQVQMLAPLES

- binding [8]: no binding
- binding [9]: binds
B3: mouse plasma apoA-IV (protein, UniProt P06728 21-395)
chain: EVTSDQVANVVWDYFTQLSNNAKEAVEQFQKTDVTQQLSTLFQDKLGDASTYADGVHNKLVPFVVQLSGHLAQETERVKEEIKKELEDLRDRMMPHANKVTQTFGENMQKLQEHLKPYAVDLQDQINTQTQEMKLQLTPYIQRMQTTIKENVDNLHTSMMPLATNLKDKFNRNMEELKGHLTPRANELKATIDQNLEDLRRSLAPLTVGVQEKLNHQMEGLAFQMKKNAEELQTKVSAKIDQLQKNLAPLVEDVQSKVKGNTEGLQKSLEDLNRQLEQQVEEFRRTVEPMGEMFNKALVQQLEQFRQQLGPNSGEVESHLSFLEKSLREKVNSFMSTLEKKGSPDQPQALPLPEQAQEQAQEQAQEQVQPKPLES
